Experimental data: the antibiotic and cytotoxicity screens of Wong et al. (2023)
Some of the results follow.

What was measured:
HSkMC = human skeletal muscle cells; assay: cytotoxicity call (relative viability < 0.9); settings: 10 µM
HepG2 = assay: cytotoxicity call (relative viability < 0.9); settings: 10 µM
S. aureus RN4220 = assay: growth inhibition call (relative growth <= 0.2); settings: 50 µM

| Compound | cytotoxicity call (HSkMC) | cytotoxicity call (HepG2) | growth inhibition call (S. aureus RN4220) |
| --- | --- | --- | --- |
| O=C(O)[C@H](O)[C@@](O)(Cc1ccc(O)cc1)C(=O)O | inactive | inactive | inactive |
| COc1ccc(NC(=O)Nc2ccc3c(c2)C(=O)N([C@H](C)CO)C[C@@H](C)[C@H](CN(C)C(=O)C2CCCCC2)OCCCC[C@@H](C)O3)cc1 | inactive | active | inactive |
| O=C(C[C@H]1CC[C@@H](NC(=O)Nc2ccc3c(c2)OCO3)[C@@H](CO)O1)NCCCN1CCOCC1 | inactive | inactive | inactive |
| Cc1cccc(S(=O)(=O)N2C[C@H](O)COC[C@H]3O[C@H](CC(=O)N4CCN(C)CC4)CC[C@@H]32)c1 | inactive | inactive | inactive |
| C[C@@H]1CCCCO[C@@H](CN(C)Cc2ccc3c(c2)OCO3)[C@H](C)CN([C@H](C)CO)C(=O)c2cc(NC(=O)Nc3ccccc3)ccc2O1 | inactive | inactive | inactive |
| C[C@@H]1CCCCO[C@@H](CN(C)Cc2ccncc2)[C@H](C)CN([C@H](C)CO)C(=O)c2cc(NS(C)(=O)=O)ccc2O1 | inactive | inactive | inactive |
| CNC[C@@H]1OCCCC[C@@H](C)Oc2ccc(NC(=O)Nc3ccc(C(F)(F)F)cc3)cc2C(=O)N([C@H](C)CO)C[C@@H]1C | inactive | inactive | inactive |
| C[C@H](CO)N1C[C@H](C)[C@H](CN(C)Cc2ccc3c(c2)OCO3)OCCCC[C@H](C)Oc2ccc(NS(=O)(=O)c3ccc(Cl)cc3)cc2C1=O | inactive | inactive | inactive |
| Cc1noc(C)c1S(=O)(=O)Nc1cccc2c1O[C@H](CN(C)S(C)(=O)=O)[C@H](C)CN([C@@H](C)CO)C2=O | inactive | inactive | inactive |
| C[C@@H]1CCCCO[C@H](CN(C)S(=O)(=O)c2ccc(F)cc2)[C@H](C)CN([C@@H](C)CO)C(=O)c2cc(NC(=O)Nc3ccc(C(F)(F)F)cc3)ccc2O1 | inactive | active | inactive |
| C[C@H](CO)N1C[C@H](C)[C@H](CN(C)S(=O)(=O)c2ccccc2)Oc2ncc(C#Cc3cccc(F)c3)cc2C1=O | inactive | inactive | inactive |
| CC(=O)OCC(COC(C)=O)OC(C)=O | inactive | inactive | inactive |
| Cc1cc(=O)n(-c2ccccc2)n1C | inactive | inactive | inactive |
